A collection of fitness landscapes (doi:10.1126/science.1257360)
The other results are listed elsewhere or left out.

B1: PhoQ; a variant is named by its letters at X, in order, P23837 (parent)
chain: MKKLLRLFFPLSLRVRFLLATAAVVLVLSLAYGMVALIGYSVSFDKTTFRLLRGESNLFYTLAKWENNKLHVELPENIDKQSPTMTLIYDENGQLLWAQRDVPWLMKMIQPDWLKSNGFHEIEADVNDTSLLLSGDHSIQQQLQEVREDDDDAEMTHSVAVNVYPATSRMPKLTIVVVDTIPVELKSSYMVWSWFIYVLSANLLLVIPLLWVAAWWSLRPIEALAKEVRELEEHNRELLNPATTRELTSLVRNLNRLLKSERERYDKYRTTLTDLTHSLKTPLXXLQXXLRSLRSEKMSVSDAEPVMLEQISRISQQIGYYLHRASMRGGTLLSRELHPVAPLLDNLTSALNKVYQRKGVNISLDISPEISFVGEQNDFVEVMGNVLDNACKYCLEFVEISARQTDEHLYIVVEDDGPGIPLSKREVIFDRGQRVDTLRPGQGVGLAVAREITEQYEGKIVAGESMLGGARMEVIFGRQHSAPKDE

Variants of: B1
Assay: enrichment ratio after two sorts for PhoP signalling (ratio (wild type AVST 3.29)); higher = more functional
Settings: with PhoP (E. coli)

Variant	enrichment ratio
IDDS	≤ 0.25
RTEH	≤ 0.25
VFWQ	≤ 0.25
SPTW	≤ 0.25
TYRG	≤ 0.25
WSRW	≤ 0.25
WSAE	≤ 0.25
NRED	≤ 0.25
WMRF	≤ 0.25
QQYC	≤ 0.25
DMEL	≤ 0.25
MVMS	≤ 0.25
HTPC	≤ 0.25
HSVG	≤ 0.25
SWAK	≤ 0.25
QEHL	4.43
IGKI	≤ 0.25
SRTQ	≤ 0.25
IKRP	≤ 0.25
WSNW	≤ 0.25
AAYF	≤ 0.25
SALI	12.2
FKGD	≤ 0.25
SMMN	19.5
EADC	≤ 0.25

Variant	enrichment ratio
YHHY	≤ 0.25
HCNP	≤ 0.25
STDS	≤ 0.25
AFQS	≤ 0.25
QYMW	≤ 0.25
MCAV	9.16
AGAQ	1.95
RMLF	≤ 0.25
WDAW	≤ 0.25
GPPV	≤ 0.25
IPGD	≤ 0.25
GNNY	≤ 0.25
HFNQ	≤ 0.25
STYM	0.458
NNCR	≤ 0.25
MGCT	≤ 0.25
VVRM	≤ 0.25
ENRA	≤ 0.25
SFDH	≤ 0.25
GGWF	≤ 0.25
SIGR	1.85
VFDT	≤ 0.25
SETQ	8.7
KHAM	≤ 0.25
NPGR	≤ 0.25

Variant	enrichment ratio
WHCN	≤ 0.25
PNRW	≤ 0.25
YPEQ	≤ 0.25
DNYL	≤ 0.25
PDSW	≤ 0.25
RHTD	≤ 0.25
EANR	≤ 0.25
KRGM	≤ 0.25
FYFR	≤ 0.25
YRKE	≤ 0.25
SEII	8.85
IIKV	≤ 0.25
AVMV	2.94
ADKI	≤ 0.25
LIRW	≤ 0.25
DGCN	≤ 0.25
KIFE	≤ 0.25
DTYW	≤ 0.25
ASFG	1.66
IKFE	≤ 0.25
VYQC	≤ 0.25
IFTS	≤ 0.25
VWYE	≤ 0.25
GMNN	≤ 0.25
PTCP	≤ 0.25

Variant	enrichment ratio
YAIC	≤ 0.25
YQKF	≤ 0.25
LTSS	≤ 0.25
MILC	6.27
GQTP	≤ 0.25
YPHW	≤ 0.25
MRAQ	≤ 0.25
EFFQ	≤ 0.25
GDHK	≤ 0.25
RPMT	≤ 0.25
VDHC	≤ 0.25
MGEM	≤ 0.25
RHFF	≤ 0.25
SKCM	11
GQCI	2.43
PMFK	≤ 0.25
WEHG	≤ 0.25
RHGG	≤ 0.25
NTLI	≤ 0.25
QIRT	≤ 0.25
IRDQ	≤ 0.25
HWSA	≤ 0.25
DSPM	≤ 0.25
IRKS	≤ 0.25
ASWC	≤ 0.25

Variant	enrichment ratio
PCMV	≤ 0.25
QEKW	≤ 0.25
IVMR	≤ 0.25
TMYD	≤ 0.25
LTEH	≤ 0.25
KSPR	≤ 0.25
GHYS	≤ 0.25
HKSN	≤ 0.25
GYVH	≤ 0.25
MCCS	≤ 0.25
PDCV	≤ 0.25
QTYM	0.346
WYMR	≤ 0.25
WPNC	≤ 0.25
RSRK	≤ 0.25
PVQN	≤ 0.25
FYLH	≤ 0.25
IMRD	≤ 0.25
IMKL	≤ 0.25
CLST	5.26
SQYR	≤ 0.25
HVER	≤ 0.25
SFGT	≤ 0.25
KKHI	≤ 0.25
KSIR	≤ 0.25

Variant	enrichment ratio
GLVL	5.57
YMLA	≤ 0.25
VNPI	≤ 0.25
WAKP	≤ 0.25
MQER	≤ 0.25
QEQC	≤ 0.25
DLFS	≤ 0.25
VICE	≤ 0.25
HEHA	≤ 0.25
KITK	≤ 0.25
SINI	1.72
RVTL	≤ 0.25
IWKD	≤ 0.25
YSVG	≤ 0.25
GPWM	≤ 0.25
DDVL	0.658
DCIR	≤ 0.25
EQFT	≤ 0.25
VMRK	≤ 0.25
TCLA	11.9
HSDV	≤ 0.25
LQPY	≤ 0.25
MNWM	4.81
MCKE	≤ 0.25
RNTD	≤ 0.25

Variant	enrichment ratio
SDQI	≤ 0.25
GIKA	≤ 0.25
MHFW	≤ 0.25
FDEQ	≤ 0.25
KQFK	≤ 0.25
IQVL	≤ 0.25
RKFI	≤ 0.25
YYFE	≤ 0.25
EHSL	≤ 0.25
MAWK	≤ 0.25
HHGE	≤ 0.25
AMCK	≤ 0.25
HTSN	≤ 0.25
PDRY	≤ 0.25
WYDR	≤ 0.25
ATWR	≤ 0.25
PMFH	≤ 0.25
FAKQ	≤ 0.25
SSTI	13.8
SPIN	≤ 0.25
TVSW	7.67
PPIN	≤ 0.25
RCGE	≤ 0.25
SMFC	≤ 0.25
GDLS	≤ 0.25

Variant	enrichment ratio
DHFN	≤ 0.25
NHGC	≤ 0.25
GWAG	≤ 0.25
NLDF	≤ 0.25
VGEV	≤ 0.25
FFGI	≤ 0.25
MKKC	≤ 0.25
IFCW	≤ 0.25
ECFG	≤ 0.25
LYYD	≤ 0.25
RKQL	≤ 0.25
PHRI	≤ 0.25
KMAG	≤ 0.25
LTFY	≤ 0.25
SIYS	0.277
MNHQ	≤ 0.25
RDLF	≤ 0.25
SHHF	≤ 0.25
AKPY	≤ 0.25
TPEN	≤ 0.25
